The supplement of paper PMC11417369
Some of the results follow.

tested on: PF3D7_0420300 AP2 domain 1 (GST-tagged); experiment: gcPBM binding intensity (ln(normalized median fluorescence intensity)); higher = stronger DNA binding
How it was run: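 An Agilent 4 × 180k array of primer-extended double-stranded 36-bp intergenic genomic probes, with negative controls, was incubated for 1 h with GST-tagged P. falciparum DNA-binding domains expressed in E. coli. Alexa488 anti-GST antibody detected bound protein, scanned at 488 nm. Binding intensity is the highest Masliner-normalised natural-log median intensity across replicate spots of either probe orientation.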

| Sequence | gcPBM binding intensity (ln) |
| --- | --- |
| ATCAAAATTGTCATTACACACCTTTATTTTTATAAT [CACACA_site5071] | 9.46 |
| AATAATATATGGACATGTACATAATATATATTTTTT [XGTACX_site312] | 9.29 |
| TTCATATAATTCATCTGTACATATTGATAGTATGCA [XGTACX_site6386] | 9.1 |
| TGTTTTATTTATTAAGCACACGCGATTTAAAAAATA [CACACA_site981] | 8.93 |
| TCAAATGTGTAATCTTGTACACATTAAAAGAAAAAA [XGTACX_site8822] | 9.19 |
| AAAAAAAACGGACACACACACATTCAATATAAAACA [CACACA_site4189] | 10.2 |
| GTATTAATATATAATTGTACTTTTTTTTTTTTTTTT [XGTACX_site4369] | 9.2 |
| ATCACCAAATGGGCTATACAACAATGAGAAATGGTA [CACACA_negctrl_site48] | 9.22 |
| TTTTTATATTTTACATGTACATAAATATATTATATA [XGTACX_site958] | 9.28 |
| AATAATGAATTGAAATGTACATATTTTTATTAATAC [XGTACX_site8899] | 9.13 |
| ATACGAAGAAATGTTCATTTATTTCGAACATTTAAT [CACACA_negctrl_site1481] | 9 |
| TTTTTCATAAAACACACACACAAAAATAATGTGGAA [CACACA_site3687] | 9.8 |
| AATATAATATAATATAGTACGTAAAAATATTATACA [XGTACX_site2170] | 9.47 |
| TCCACTTAACTCAATTGTACAAAAATAAAAATTAAA [XGTACX_site855] | 8.85 |
| TTTTATGCGCAATAAGTGCATTTAAAATATATATAT | 8.97 |
| ATAATATATATATATATATTATCAAATATATATATA [GTGCAC_negctrl_site346] | 8.96 |
| TGTGTATATCGATAAAGTACATTTGAAAAGTGACTT [XGTACX_site6957] | 9.21 |
| GTAATATGTATCCATACACACATACAGTTTATTTGC [CACACA_site6540] | 9.59 |
| AAATTATATATGATGTGTACATAAATATATACACAT [XGTACX_site8761] | 9.3 |

| Sequence | gcPBM binding intensity (ln) |
| --- | --- |
| ATGTATTTATTTTAACGTACAAGATATTATTATTAT [XGTACX_site4609] | 9.3 |
| AAATTATAATATAATACACACATAAAAAAAAAAAAA [CACACA_site7] | 9.47 |
| ATATGGCATATTTGTATTATACATACATATGTATCT [TGCATGCA_negctrl_site562] | 9.5 |
| TATATTTAGAGAGAGACACACAAAGGGACTTACACA [CACACA_site2545] | 9.65 |
| TTATTATTCAAGAGGAGTACATTATGTGTATAATAT [XGTACX_site4995] | 9.2 |
| CTAATTGTGTATACCTGTACATATATATATATATAT [XGTACX_site416] | 9.34 |
| AATACAAAAAAAGGTACACACATAATATATTTATTA [CACACA_site2628] | 9.84 |
| TTAACTTTTTTATATGCACACATAAACAAGGATATA [CACACA_site8932] | 9.21 |
| TGTTATTCTACATATACACACAAATAACAATTTAAA [CACACA_site1824] | 9.36 |
| AAAAAAAAAAAGAACACACACAGTGCACATTCGGTG [CACACA_site788] | 9.7 |
| TTTCCCTCAAATAAAGTGCATTATGATTTTAATTTA | 9.08 |
| TTATTATTTGGTTATAGTACATAATATAATATATAT [XGTACX_site6911] | 9.15 |
| TATATATATATGTATGCATGTTGTTTTTTATTTAAT [TGCATGCA_site343] | 9.57 |
| CTATATTTCGTTGGACGTACAAATGTGATAATTAGG [XGTACX_site3232] | 9.09 |
| TTTCTTTTTTCACGTGCATGCCATTTAAGTATTAAT [TGCATGCA_site651] | 9.55 |
| GAATTATAAGAATAAACACACAAGCTTAAAAAAAAA [CACACA_site1204] | 9.45 |
| AGAATTCAACAATGTTGTACATACACACACACAAAA [XGTACX_site5035] | 9.97 |
| TTTGTTTGGTTTTGGTGTACTTTTTTTTTTTTTTCT [XGTACX_site2050] | 9.71 |
| ACATATGTATAATATGCACACGTCATTTTCCCCTTA [CACACA_site5194] | 9.47 |

| Sequence | gcPBM binding intensity (ln) |
| --- | --- |
| ACTAAACTTATATGTACACACATATAACATTAATTT [CACACA_site2258] | 9.59 |
| TAATTCTTGTAAAATGTGCGCAGTAGATATAGTTTT | 9.27 |
| AGATATAAGAAAAGCACACACACACTAGAAAAAAAA [CACACA_site5559] | 10.2 |
| ATAAAATTATATACGTGTACATATATATATTTATGT [XGTACX_site4653] | 9.19 |
| ATATTTATTCAATCCAGTACATATTATATATTGTAT [XGTACX_site184] | 9.33 |
| TAATAAATAGGACACACACACATATTTATATATCAT [CACACA_site6771] | 9.99 |
| CCTTTAAGCAAAAACACACACACATATTTATTTATA [CACACA_site6294] | 9.9 |
| AATTTTTTTTTTTTGTTGCACTTTTAGAGTTTTAAT [GTGCAC_site9519] | 9.21 |
| TATAAAAGTGGACACACACACATATATATATATATA [CACACA_site4673] | 9.65 |
| ACACATCAAATATAAAAAAAAAATAACTATAAATAA [CACACA_negctrl_site587] | 9.36 |
| TTGCAAAATTGTTTTATCACAAATATATACTTAATA [CACACA_negctrl_site403] | 9.01 |
| TAATTATTTTCGGTACGTACTAATGTATATATAATT [XGTACX_site3895] | 9.2 |
| TAATAATTTTTTTTTTTTTTTTACGAAAATATGATT [GTGCAC_negctrl_site323] | 8.82 |
| ATAATAAGAACTCAGTGTACTATCCTTTGAATTAAC [XGTACX_site8117] | 9.32 |
| AACGTCTTTTTTTTTTTTTTTCTTTTTTTTTTTATT [CACACA_negctrl_site303] | 9.46 |
| TGTATGCTTACATAATGTACGGAAAAATAAAGGCAT [XGTACX_site6923] | 9.43 |
| ATATATAAATAATGTTGTACGTATTTCAAAAGTATG [XGTACX_site3363] | 9.24 |
| ATAATAATAATAAAAAGTACAAATTATTATATATAT [XGTACX_site5160] | 9.42 |
| TGCTCTCTCTTGTTGTGTACATAATACAATATATAT [XGTACX_site7427] | 9.6 |
